Where “and” joins values, the source holds several entries; their conditions need not be identical. Identical values can stand only once. Inconclusive means that the source gave no clear call. Such entries were picked first, then a sample of the others. Potencies beside an inconclusive call are fits to weak or partial responses and may not hold up. Calls of active or inactive are those of the source. Calls follow the shape of the dose curve; as a rule, active = well fitted curve in the direction sought with a large enough effect in the repeat runs; inconclusive = weak or mixed curves; inactive = no such curve, though single readings can be large; an effect the other way counts as inactive or inconclusive.
What follows are compounds tested against Cytochrome P450 2D6 (Homo sapiens) (UniProt P10635) (assay: Cytochrome P450 family 2 subfamily D member 6 (CYP2D6) small molecule antagonists: luciferase biochemical (cell-free) qHTS assay (AID 1645840; also: nearly all actives have a fitted effect of over 55% in size; as to activity change, negative = inhibition: % is scaled to controls: 0 for no effect and ±100 for the full control effect)). Settings: P450-Glo CYP2D6 enzyme, luciferin luminescence, 1 h; series mostly up to 57.4 µM; activity change, negative = inhibition: at the top concentration.
UniProt P10635, sequence (P10635 whole entry, looked up): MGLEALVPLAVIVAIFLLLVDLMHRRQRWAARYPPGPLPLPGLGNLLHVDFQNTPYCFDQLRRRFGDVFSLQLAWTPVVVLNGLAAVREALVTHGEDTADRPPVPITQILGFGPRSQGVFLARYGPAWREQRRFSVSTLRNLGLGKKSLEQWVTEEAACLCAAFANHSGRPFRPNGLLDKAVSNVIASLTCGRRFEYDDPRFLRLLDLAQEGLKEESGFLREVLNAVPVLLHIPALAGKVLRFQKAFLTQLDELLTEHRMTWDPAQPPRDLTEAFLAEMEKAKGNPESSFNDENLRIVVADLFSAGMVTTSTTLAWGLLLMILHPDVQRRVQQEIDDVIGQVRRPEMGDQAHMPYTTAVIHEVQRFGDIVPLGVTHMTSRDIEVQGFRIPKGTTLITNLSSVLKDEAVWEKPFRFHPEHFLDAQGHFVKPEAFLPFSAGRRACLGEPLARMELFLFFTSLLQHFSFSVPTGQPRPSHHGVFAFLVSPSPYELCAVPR
In short: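 P450-Glo CYP2D6 system: proluciferin substrate converted by enzyme to luciferin, read by luminescence proportional to activity. Enzyme-substrate mix with compound 10 min at room temperature, then NADPH regeneration 1 h before detection reagent.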
Potency is read from the fitted curve at half-maximal effect; tags tell the direction and shape of the fitted curve.

SMILES | activity change, negative = inhibition | Potency
O=C(O)c1ccc2c(c1)nc(Nc1cccc(Cl)c1)c1ccncc12 | inactive: 0.683% | 
CC1(C)CC(=O)c2c(C(F)(F)F)nn(-c3ccc(C(N)=O)c(NC4CCC(OC(=O)CN)CC4)c3)c2C1 (stereo not drawn) |  | active: 15.1 µM
COc1cc(-c2nn(C3CCC(N4CCN(C(C)=O)CC4)CC3)c3ncnc(N)c23)ccc1NC(=O)c1cc2ccccc2n1C (stereo not drawn) |  | inconclusive: 8.49 µM [inhibitor, partial curve, poor fit]
CC[C@H](C)C(=O)O[C@H]1C[C@H](O)C=C2C=C[C@H](C)[C@H](CC[C@@H](O)C[C@@H](O)CC(=O)O)[C@H]21 | inactive: -0.234% | 
Nc1ccccc1NC(=O)c1ccc(CNc2nccc(-c3cccnc3)n2)cc1 |  | active: 4.77 µM
CC(C)OC(=O)OCOP(=O)(CO[C@H](C)Cn1cnc2c(N)ncnc21)OCOC(=O)OC(C)C | inactive: 2.25% | 
CCN(CC)CCOc1ccc(Cc2ccccc2)cc1 |  | active: 6.17 µM

Each compound was assayed against Cytochrome P450 3A4 (Homo sapiens) (UniProt P08684) (assay: Cytochrome P450 family 3 subfamily A member 4 (CYP3A4) small molecule antagonists: luciferase qHTS assay (AID 1645841; also: nearly all actives have a fitted effect of over 45% in size)). Settings: P450-Glo CYP3A4 enzyme assay, luciferin luminescence; series mostly up to 57.4 µM; activity change, negative = inhibition: at the top concentration.
UniProt P08684, sequence (P08684 whole entry, looked up): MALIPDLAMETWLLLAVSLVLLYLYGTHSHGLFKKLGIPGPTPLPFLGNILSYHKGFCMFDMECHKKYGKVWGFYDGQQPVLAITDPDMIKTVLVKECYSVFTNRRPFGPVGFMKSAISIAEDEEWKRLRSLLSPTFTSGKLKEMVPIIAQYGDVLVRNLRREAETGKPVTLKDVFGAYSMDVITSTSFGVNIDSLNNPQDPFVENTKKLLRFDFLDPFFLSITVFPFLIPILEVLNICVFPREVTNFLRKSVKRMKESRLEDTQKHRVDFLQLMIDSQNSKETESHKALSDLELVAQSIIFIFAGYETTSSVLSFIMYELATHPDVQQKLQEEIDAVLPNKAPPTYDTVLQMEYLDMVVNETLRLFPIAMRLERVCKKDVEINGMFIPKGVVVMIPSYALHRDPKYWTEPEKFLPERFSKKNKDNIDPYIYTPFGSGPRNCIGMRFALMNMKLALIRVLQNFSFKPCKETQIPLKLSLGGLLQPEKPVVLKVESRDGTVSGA
In short: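 Luminescent CYP3A4 activity readout: compounds plus enzyme-substrate mix 10 min at room temperature, reaction started with NADPH regenerating system for 1 h, stopped with detection reagent, read after 20 min. Ketoconazole served as control.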

SMILES | Potency | activity change, negative = inhibition
Cc1ccccc1C(C(=O)NC1CCCCC1)N(C(=O)CNc1ccc(C#N)cc1)c1cccc(F)c1 (stereo not drawn) | inconclusive: 9.52 µM [falling, partial curve] | 
CC(=O)NC[C@H]1CN(c2ccc(N3CCOCC3)c(F)c2)C(=O)O1 |  | inactive: -0.848%
C[C@@H](N)c1ccc(C(=O)Nc2ccnc3[nH]ccc23)cc1 | inconclusive: 37.9 µM [falling, single point] | 
O=S(=O)(O)CCS |  | inactive: 36.5%
Cc1nnc(C(=O)NC(C)(C)c2nc(C(=O)NCc3ccc(F)cc3)c(O)c(=O)n2C)o1 | inconclusive: 0.0617 µM [falling, single point] | 
CC[C@H](C)C(=O)O[C@H]1C[C@H](O)C=C2C=C[C@H](C)[C@H](CC[C@@H](O)C[C@@H](O)CC(=O)O)[C@H]21 |  | inactive: -2.85%

What follows are compounds tested against Cytochrome P450 2C9 (Homo sapiens) (UniProt P11712) (assay: Cytochrome P450 family 2 subfamily C member 9 (CYP2C9) small molecule antagonists: luciferase biochemical (cell-free) qHTS assay (AID 1645842; also: nearly all actives have a fitted effect of over 55% in size; as to activity change, negative = inhibition: % is scaled to controls: 0 for no effect and ±100 for the full control effect)). Settings: P450-Glo CYP2C9 enzyme assay, luciferin luminescence; series mostly up to 57.4 µM; activity change, negative = inhibition: at the top concentration.
UniProt P11712, sequence (P11712 whole entry, looked up): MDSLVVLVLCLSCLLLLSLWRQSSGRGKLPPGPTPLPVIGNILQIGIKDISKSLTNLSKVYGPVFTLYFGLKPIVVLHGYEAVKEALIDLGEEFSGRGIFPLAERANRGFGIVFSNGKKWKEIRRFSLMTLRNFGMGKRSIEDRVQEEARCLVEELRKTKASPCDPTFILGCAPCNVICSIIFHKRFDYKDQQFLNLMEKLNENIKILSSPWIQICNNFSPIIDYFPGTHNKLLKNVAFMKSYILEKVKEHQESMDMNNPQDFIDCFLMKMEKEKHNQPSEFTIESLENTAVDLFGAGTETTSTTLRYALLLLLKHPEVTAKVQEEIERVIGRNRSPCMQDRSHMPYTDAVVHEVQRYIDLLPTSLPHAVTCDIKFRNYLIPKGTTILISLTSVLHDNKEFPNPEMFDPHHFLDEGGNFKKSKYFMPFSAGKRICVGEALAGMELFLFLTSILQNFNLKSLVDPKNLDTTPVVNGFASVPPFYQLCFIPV
In short: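 P450-Glo CYP2C9 system: proluciferin substrate with enzyme in mix containing 0.4% BSA, 10 min at room temperature, then NADPH regeneration solution added and incubated 1 h at 37C. Detection reagent stopped reaction; luminescence read after 20 min as RLU.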

SMILES | Potency | activity change, negative = inhibition
COc1ccc(-c2ccc3ncc4c(c3c2)n(-c2ccc(N3CCNCC3)c(C(F)(F)F)c2)c(=O)n4C)cn1 | inconclusive: 21.3 µM [inhibitor, single point] | 
Nc1ncnc2c1c(-c1cccc(OCc3ccccc3)c1)cn2C1CC(CN2CCC2)C1 (stereo not drawn) | inconclusive: 15.1 µM [inhibitor, partial curve, poor fit] | 
N=C(N)c1ccc2cc(OC(=O)c3ccc(N=C(N)N)cc3)ccc2c1 |  | inactive: 6.6%
CCCc1nn(C)c2c(=O)[nH]c(-c3cc(S(=O)(=O)N4CCN(C)CC4)ccc3OCC)nc12 | inconclusive: 27.5 µM [inhibitor, single point] | 
COc1ccc(C2(C#N)CCC(C(=O)O)CC2)cc1OC1CCCC1 (stereo not drawn) | inconclusive: 10.7 µM [inhibitor, partial curve] | 
CN(c1nccc(=O)[nH]1)C1CCN(c2nc3ccccc3n2Cc2ccc(F)cc2)CC1 | inconclusive: 27.5 µM [inhibitor, single point] | 
O=[N+]([O-])c1cn2c(n1)OC[C@@H](OCc1ccc(OC(F)(F)F)cc1)C2 | inconclusive: 26.8 µM [inhibitor, single point] | 
CC(C)c1noc(N2CCC(COc3ccc(-c4ccc(S(C)(=O)=O)cc4)nc3)CC2)n1 | inconclusive: 5.35 µM [inhibitor, partial curve] | 
C[C@H](O)[C@@H]1C(=O)N2C(C(=O)O)=C(S[C@@H]3CN[C@H](CNS(N)(=O)=O)C3)[C@@H](C)[C@@H]12 | inconclusive: 21.3 µM [inhibitor, single point] | 
CN(C(=O)c1ccc(F)cc1C(F)(F)F)C1CCN(c2nnc(-c3ccnn3C)c3ccccc23)CC1 | inconclusive: 8.49 µM [inhibitor, partial curve] | 
CN1C(C(=O)Nc2ccccn2)=C(O)c2sccc2S1(=O)=O | active: 12.3 µM | 
CC(=O)NC[C@H]1CN(c2ccc(N3CCOCC3)c(F)c2)C(=O)O1 | inconclusive: 37.9 µM [inhibitor, single point] | 
CN(C)c1nc(Cc2ccc(NC(=O)c3ccc(C(F)(F)F)cc3)cc2)nc(N(C)C)c1CC(=O)O |  | inactive: -4.23%
O=C1CSC(=O)N1C(CCc1ccncc1)COc1ccc(-c2cccc([N+](=O)[O-])c2)cc1 (stereo not drawn) | inconclusive: 10.7 µM [inhibitor, partial curve, poor fit] | 
CC(C)(Oc1ccc(C2CC2(Cl)Cl)cc1)C(=O)O (stereo not drawn) | inconclusive: 11 µM [inhibitor, partial curve] and inconclusive: 37.9 µM [inhibitor, single point] | 

Reference: PubChem BioAssay (NCATS)
